Read counts are not given, so values of variants with three or more changes are uncertain.
B1: LINE1-mini (parent)
chain: GGCAGAGCUCAACACAGCGUGGCAAAGUGGCUGUGGCUAGACUGCC

Variants of: B1
Test: self-cleavage, relative activity (ratio to wild type); higher = more cleavage; in vitro, sequencing; the parent is a self-cleaving ribozyme

Variant	self-cleavage
G2C A6G A25G G27U	0.01
G1C G5U G17A	0.02
G22C G30U C37U	0.06
A4U G5C U34A G36C	0.06
G21A G22A C42A	0.11
U9C U28C C46G	0.02
C15U C23G A24G	0.21
A12U A26G G44U	0.01
G5C C13A C45A	0.08
A11U U28C G29U	0.1
C3U U28A U34A C45G	0.03
A25C G27A G29C U34G A41U	0.03
G7C C8U G44U C46U	0.05
G1U A4U U20G U43A	0.14
A26U G33A G35C	0.02
C10A U20A C23U C37A C42U U43C C46G	0
G29U C31A U38C	0.14
G5A C10U C31G C45U	0.03
U9A A11U U20G	0.01
A4C C13A U20A G22U C23A U28C G33A	0.04
G7U C13A C18A U28G A41C	0.01
G5C C8A U32C G36A U43G	0.03
G27A G33U G36U	0.04
G1A U38C G44C	0.05

Variant	self-cleavage
G1U C13A G29U	0
G5A C10G A25C U34C C37A	0.01
G22C C23G C45U	0.69
G7U U9G G22C C42A	0.02
C3G G5A A11G C13A A24C	0.04
U20G A26U U43A	0.01
G2U G30U G40A	0.03
G2A C8U U20C C37A	0.03
U38G C45A C46G	0.04
G5A C18G G33A	0.12
G5C A6U C13U	0.08
G7U A16U C23U	0.16
C8G A16C G21A G27A	0.06
U9A G21A G30U A41G U43C	0
C3A C8A G35U U38G A39G C45U	1.19
G2C G7A G44C	0.15
G1C G2U U9G G21U C42A C45U	0.03
G7C C10A C15U U34G	0.01
A14C A25G U28G G33A U43A	0.03
G7U U9A A16U C18U C23A A24C	0.04
A12C G19U G21U G27A U32A A39G	0.01
G5U C8A G36A C46U	0.67
A16G A25U U28C	0.33
G2C C10U U20G G35U	0.04

Variant	self-cleavage
C13U G17C G33A	0.11
G2U C18G G27U	0.03
G7A U28C A39C	0.04
C8U U43A G44U	0.2
G1C A4U C8G C15G A25C G36U	0.01
A6G C10A C23U	0.05
G7U C8G C15A	0.07
U20C G33C U34G	0.17
G1C C8A U9C G27A G40A	0.01
A16U G19C U32G A39C	0.02
C23A A26U C46A	1.05
A6G C8A A24U G35C	0.1
A6U G19U U32C C42G	0.1
A6U C10G A11C U20G	0.03
A12U A16U U38G	0.03
G30U G35C G36C	0.03
G2A U9G U20A G33A	0.08
G1A A11G A14G U38G C42A	0.01
A14C A16G C37U	0.03
G2A C10G G27U G44U	0.17
G2C C3A U43A	0.12
G1U C13A C18G C31G G40C	0.01
C3A C10G G40A C42G	0
A11C A14C G17U	0.01

Variant	self-cleavage
A12C C13A G40A G44C	0.04
A6U G19A U32C	0.07
A4U G5C U20G	0.01
A6C A24G C46A	0.1
G21U G35C A41C	0.01
C15G A25G U28G	0.04
G1U G21C C23U A24U	0.56
G2C A16C C31U U34G C46U	0.07
G5U U9A C31U C46U	0.02
A11U A26U C37A A41U	0
G2U G27C G40U	0.02
G21C C31A C37A	0.34
C8A G19A A24C U34C	0.26
G2A A6C U43G	0.12
G5A C18A G27A A39G	0.03
C10G G33U C45A	0.01
C10U G27U U43C	0.05
G30A C37U C46U	0.02
C10U A25C G33U A39C A41C	0.03
C13A G36U A39G U43A	0.03
A14C U20A A25U C37A U43C	0.06
G7C U28G G30A G40U C42A	0.13
U20G G22A G40A C42G	0.08
C31A G40A U43A	0.03

Variant	self-cleavage
A4G G5U C46U	0.1
C10G G19A A25U	0.21
C8U A12G G21U	0.01
G2U C8G G30U C31A	0.03
G7C C15U A26U G44C	0.09
G7A U43A G44C	0.14
G7U C10A G19U G35C	0.02
U20C U34G A39U	0.09
G22A G30U U38G C46A	0
A14G C15G G27U	0.19
C18A G21U U28C	0.13
C8G G36A C42G	0.04
C31U U34G G40A	0.01
U34G G35U C45U	0.11
C8U G17C A24G U32A	0.02
G2A G30A G33A G36U	0.25
A6C A14U U32C	0.07
A4G C23A C31U C42A C45U	0.12
C3U C8U G27C G30A	1.12
A6G U28G G30A	0.14
C13U C18A C37G	0.02
G5U G7A G29C	0.12
C10G G19A U20G	0.06
A12G G17A A25U G35U C37U	0.08

Variant	self-cleavage
G1C A11G A24G G29C A41C C45A	0.01
G5A A24C G36A C37A C45G	0.04
A11C C15G C46A	0.01
G1C G36A C46A	0.13
G7A U9A G19U G27U U38A	0.05
U20G G22U U43A	0.11
G2U G7U C23U	0.04
G1A G2A A6G G19U	0.44
C13U C15G C46U	0.03
A6C A11C C13U	0.05
C3U C8U A39C G40A U43C C45G	0.1
C10G C31U A41C	0.02
G1U A6C C10A C42A	0.04
G5A A11U C31G	0.01
C10A C18G A26U C31G	0.01
C23A G27U U38G U43C	0.01
U9G C10U G33C	0.04
G1A C13G C15U G35C A39G C46G	0.16
A6C U34C C42U	0.05
G1C U9C A12U G27C G29U U32A	0.01
C3G C10U G21A G30A A41C	0.05
U20C C31U G40C	0.01
G1C C8U U34G U38C	0
U20G U34C G36U C46A	0.02

Variant	self-cleavage
U9G C15A G27C	0.07
A12U C37A A41C C42G	0.02
G5U A26G A39U C46G	0
G2A C15U U20C G40U	0.4
G7A U9G G22A G44A	0.06
A11U C15U A25C G44A C46U	0
A4G C10G G19C A25U G35U U38C	0
C3U G7U A25C G33A	0.14
C3A G5C C10A C13A G29C	0.02
A39G G40A C46G	0.02
A6G A16G G30C	0.05
C8U G19C G22C	0.08
C3U C18G C45A	0.06
C13U U28C A39C C42G	0.05
C18G U38A A39U	0.07
G22U G29A C42A	0.2
A4C C37U U38A	0.07
G2U A16C C42G C45A	0.01
G7A C8U G21U A41G C46A	0.47
C8U A12C A25C C31A A41C	0.02
G2C A4C C18G G21A C42G	0.01
C13U G33A G35A	0.14
C3U C18U U20A G33A	0.07
